Common to all, as to assay: Viability of human cancer cell lines after 72 h of drug (GDSC screen)
Compound in one assay: C[C@@H](N)c1ccc(C(=O)Nc2ccnc3[nH]ccc23)cc1 [Y-39983]
The following applies: top dose 20 µM; top dose inferred. Here is the method: (§1)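 Human cancer cell lines in 384-well plates, medium with 10% serum, drug for 72 h over a 256-fold dose range (nine 2-fold or five 4-fold steps up to the top dose). Adherent lines were fixed and stained with the nucleic acid dye Syto60, suspension lines read with resazurin; signal relative to control wells, capped at 0 and 100%. One two-parameter sigmoid per drug and line, fitted in a mixed model over all curves with the slope shared within a line.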

Compound in the next assay: NC(=O)Nc1sc(-c2ccc(F)cc2)cc1C(N)=O [TPCA-1]
The following applies: top dose 20 µM. Here is the method:
as §1

Compound in the next assay: CN1CCN(CCOc2cc(OC3CCOCC3)c3c(Nc4c(Cl)ccc5c4OCO5)ncnc3c2)CC1 [AZD-0530]
The note with it: top dose 2 µM. Here is the method:
as §1

Compound in another assay: CC(C)CC(=O)Nc1n[nH]c2c1CN(C(=O)C1CCN(C)CC1)C2(C)C [PHA-793887]
The following applies: top dose 10.24 µM. Here is the method:
as §1

Compound in another assay: CCc1nc(N)nc(N)c1-c1ccc(Cl)cc1 [Pyrimethamine]
The note with it: top dose 20 µM; top dose inferred. On the procedure: as §1

Compound in the next assay: C/C(=C\c1csc(C)n1)[C@@H]1C[C@@H]2O[C@]2(C)CCC[C@H](C)[C@H](O)[C@@H](C)C(=O)C(C)(C)[C@@H](O)CC(=O)O1 [Epothilone B]
The following applies: top dose 0.032 µM; top dose inferred. On the procedure: as §1

Compound in another assay: CCCS(=O)(=O)Nc1ccc(F)c(C(=O)c2c[nH]c3ncc(Cl)cc23)c1F [PLX4720]
The note with it: top dose 10 µM. On the procedure:
as §1

The mark [1] stands for this setting: screen: GDSC drug entry 1371, top dose inferred.

We go through eight cell lines from the supplement of paper PMC4967469.

The IC50 comes from the fitted curve, where viability falls to half of the control; a fit beyond the top or the lowest dose is shown as a bound at that dose. AUC, from the same fit, is the share of area under the viability curve across the 256-fold dose range: 1 means no effect, lower means more sensitive. For some assays here: A top dose marked as inferred was calculated from the reported fits. For some assays here: Drugs with an entry number were screened twice under separate entries, and the two screens often disagree.

Consider DEL (lymphoid neoplasm, suspension), for which the AUC with Y-39983 stood at 0.804; in the assay with TPCA-1 it was 0.624; in the assay with AZD-0530, 0.985; with PHA-793887 it was 0.297; with Pyrimethamine, 0.719; with Epothilone B, 0.581. The results for the AUC in the assay with PLX4720 (screen: GDSC drug entry 1036) and with PLX4720 (setting [1]) were 0.994 and 0.974, respectively. Also, the IC50 with Y-39983 is 7.6 µM; with TPCA-1, 2.53 µM; in the assay with AZD-0530, above 2 µM; with PHA-793887, 0.198 µM; with Pyrimethamine, 4.44 µM; in the assay with Epothilone B, 0.00316 µM. Further, the IC50 with PLX4720 (screen: GDSC drug entry 1036) and with PLX4720 (setting [1]) was above 10 µM each time.

Regarding DG-75 (Burkitt lymphoma, suspension), the AUC stood at 0.961 with Y-39983; 0.893 with TPCA-1; 0.987 in the assay with AZD-0530; 0.78 with PHA-793887; 0.862 with Pyrimethamine; 0.909 with Epothilone B. Besides, the AUC was determined as 0.817 with PLX4720 (screen: GDSC drug entry 1036) and 0.94 in the assay with PLX4720 (setting [1]). Also, the 50% inhibitory concentration (IC50) with Y-39983 was above 20 µM; in the assay with TPCA-1, above 20 µM; with AZD-0530, above 2 µM; with PHA-793887, 4.26 µM; in the assay with Pyrimethamine, 17.4 µM; with Epothilone B it was above 0.032 µM. The IC50 with PLX4720 (screen: GDSC drug entry 1036) is 5.68 µM; with PLX4720 (setting [1]), above 10 µM.

Turning to DJM-1 (skin, adherent), the AUC in the assay with Y-39983 is 0.972; in the assay with TPCA-1, 0.887; in the assay with AZD-0530 it was 0.988; with PHA-793887 it was 0.949; in the assay with Pyrimethamine, 0.984; in the assay with Epothilone B it was 0.581. The AUC with PLX4720 (screen: GDSC drug entry 1036) came out at 0.943; with PLX4720 (setting [1]) it was 0.987. Moreover, the IC50 with Y-39983 was above 20 µM; with TPCA-1, above 20 µM; with AZD-0530, above 2 µM; with PHA-793887 it was above 10.2 µM; with Pyrimethamine, above 20 µM; with Epothilone B, 0.00332 µM. Besides, the IC50 with PLX4720 (screen: GDSC drug entry 1036) and in the assay with PLX4720 (setting [1]) was above 10 µM each time.

In the case of “DMS-79 (small cell lung carcinoma, suspension)”, the AUC with Y-39983 came out at 0.965; with TPCA-1, 0.97; with AZD-0530, 0.986; in the assay with PHA-793887, 0.98; with Pyrimethamine, 0.928; with Epothilone B it was 0.939. The values for the AUC with PLX4720 (screen: GDSC drug entry 1036) and in the assay with PLX4720 (setting [1]) were 0.978 and 0.98, respectively. Moreover, the IC50 in the assay with Y-39983 is above 20 µM; in the assay with TPCA-1, above 20 µM; in the assay with AZD-0530 it was above 2 µM; in the assay with PHA-793887, above 10.2 µM; in the assay with Pyrimethamine, above 20 µM; in the assay with Epothilone B, above 0.032 µM. Further, the IC50 with PLX4720 (screen: GDSC drug entry 1036) and in the assay with PLX4720 (setting [1]) was above 10 µM throughout.

With “DMS-114 (small cell lung carcinoma, adherent)”, the AUC was found to be 0.985 with Y-39983; 0.858 with TPCA-1; 0.976 in the assay with AZD-0530; 0.778 in the assay with PHA-793887; 0.945 with Pyrimethamine; 0.919 in the assay with Epothilone B. Further, the values for the AUC with PLX4720 (screen: GDSC drug entry 1036) and in the assay with PLX4720 (setting [1]) were 0.984 and 0.977, respectively. Besides, the IC50 with Y-39983 is above 20 µM; with TPCA-1 it was above 20 µM; with AZD-0530, above 2 µM; with PHA-793887 it was 4.79 µM; with Pyrimethamine, above 20 µM; in the assay with Epothilone B it was above 0.032 µM. The IC50 in the assay with PLX4720 (screen: GDSC drug entry 1036) and with PLX4720 (setting [1]) was above 10 µM each time.

DND-41 (T-cell leukaemia, suspension): the AUC in the assay with Y-39983 was 0.813; with TPCA-1, 0.308; with AZD-0530, 0.978; in the assay with PHA-793887 it was 0.388; in the assay with Pyrimethamine, 0.769; with Epothilone B it was 0.882. The figures for the AUC with PLX4720 (screen: GDSC drug entry 1036) and in the assay with PLX4720 (setting [1]) were 0.989 and 0.975, respectively. The IC50 with Y-39983 was 9.26 µM; with TPCA-1, 0.389 µM; in the assay with AZD-0530, above 2 µM; in the assay with PHA-793887, 0.327 µM; with Pyrimethamine, 6.71 µM; with Epothilone B, 0.0269 µM. Further, the IC50 with PLX4720 (screen: GDSC drug entry 1036) and with PLX4720 (setting [1]) was above 10 µM throughout.

In the case of DSH1 (bladder, adherent), the AUC turned out to be 0.989 with Y-39983; 0.905 with TPCA-1; 0.972 in the assay with AZD-0530; 0.932 with PHA-793887; 0.711 with Pyrimethamine; 0.952 with Epothilone B. For the same cell line, the results for the AUC with PLX4720 (screen: GDSC drug entry 1036) and in the assay with PLX4720 (setting [1]) were 0.966 and 0.988, respectively. The IC50 in the assay with Y-39983 is above 20 µM; in the assay with TPCA-1, above 20 µM; with AZD-0530 it was above 2 µM; with PHA-793887, above 10.2 µM; with Pyrimethamine it was 4.79 µM; with Epothilone B, above 0.032 µM. For the same cell line, the IC50 with PLX4720 (screen: GDSC drug entry 1036) and with PLX4720 (setting [1]) was above 10 µM each time.

Take DU-4475 (breast, suspension): the AUC with Y-39983 is 0.924; with TPCA-1 it was 0.855; with AZD-0530 it was 0.992; with PHA-793887, 0.626; with Pyrimethamine it was 0.887; with Epothilone B it was 0.515. Besides, the AUC was determined as 0.438 in the assay with PLX4720 (screen: GDSC drug entry 1036) and 0.563 in the assay with PLX4720 (setting [1]). Moreover, the IC50 with Y-39983 was above 20 µM; with TPCA-1, 11.5 µM; with AZD-0530, above 2 µM; with PHA-793887, 1.32 µM; with Pyrimethamine, 15.1 µM; in the assay with Epothilone B it was 0.00218 µM. For the same cell line, the IC50 with PLX4720 (screen: GDSC drug entry 1036) came out at 0.437 µM; with PLX4720 (setting [1]) it was 0.899 µM.
